The results in this text go back to PubChem BioAssay (NCI).

The structures appear in SMILES notation. “And” between values parts separate entries of the source, which are not always exact repeats. Identical values can stand only once.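 Growth conditions: 96-well plates. Treatment: test compound, 48 hours, 5 concentrations. Analysis: linear interpolation between bracketing concentrations; unreached endpoints set to highest concentration. Abbreviation: GI50, concentration required for 50% inhibition of growth. The concentration for full growth arrest is given as TGI.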 Some results are limits rather than exact numbers.

In the assay the test system is NCI-H322M lung. Nature of the assay: NCI tumour cell line growth inhibition, 48 h.
For the compound `COc1ccc(-c2nc3sccn3c2/C(N)=N/C(=N)N)cc1OC`, the GI50 is 51.7 µM and the TGI is more than 100 µM.
With `CC[C@@]1(O)C[C@H](OC2CC(N(C)C)C(O)C(C)O2)c2c(O)c3c(c(O)c2[C@H]1OC1CC(N(C)C)C(O)C(C)O1)C(=O)c1cccc(O)c1C3=O` (stereo partly specified), the GI50 was less than 0.01 µM; the TGI was 0.415 µM and 0.079 µM.
Regarding `O=[N+]([O-])C(=C1NCCN1)/C(Cl)=C(\Cl)Br`, the TGI is more than 100 µM.
Still for that read-out and setting: as for `Cc1cc(=O)[nH]c(NN2C(Cl)C(=O)C2c2ccccc2O)n1` (stereo unspecified), the figure is more than 100 µM; as for `Cc1cc(O)c2c(=O)c3ccccc3[nH]c2c1`, more than 100 µM.
The same measure, in the same setting: as for `CC(C)=CC(=O)C1c2cccc(O)c2C(=O)c2c(O)cc(C)cc21` (stereo unspecified), the figure is 6.94 µM.
On the same count and under the same terms, in the case of `COc1ccc(CNc2nc(NCc3ccc(OC)c(OC)c3)nc(NC3CCCCC3)n2)cc1` it was more than 100 µM; in that of `O=C(O)CCc1coc2ccc(O)cc12`, more than 100 µM.
For the compound `NC(=O)c1sc(-n2cnc3ccccc32)cc1OCc1ccccc1Br`, the GI50 is 10.7 µM and the TGI was more than 25 µM.
Taken in the same sequence, the figures for `C=C(CN1CCN(c2ccc(Cl)cc2F)CC1)c1ccc(C(=O)Nc2ccccc2N)cc1` were more than 19.6 µM and more than 100 µM.
Take `COC1CCC(N2C(=O)CNc3ncc(-c4ccc(C(C)(C)O)nc4)nc32)CC1` (stereo unspecified): the GI50 is 0.536 µM and 0.289 µM; the TGI is more than 37.6 µM.
As to `Cc1cc(I)cc(CN(C)CCCCN2CCCCC2)c1O`, the GI50 is 23.9 µM and the TGI was 95.9 µM.
`O=C(O)CSc1ccc([N+](=O)[O-])cc1[N+](=O)[O-]` gave a TGI of more than 100 µM.
Turning to `CNC(=O)OCC1=C(COC(=O)NC)C(C)N(c2ccc(OC)cc2)C1` (stereo unspecified), the TGI was more than 100 µM.
Same read-out and setting: as for `Cc1cn(C2CC(n3cc(Cn4cc(I)c(=O)[nH]c4=O)nn3)C(CO)O2)c(=O)[nH]c1=O` (stereo unspecified), the figure is more than 100 µM.
In the case of `Cc1ccc(C(=O)/C(=C/c2ccc([N+](=O)[O-])cc2)SCc2ccc(Cl)cc2)cc1`, the GI50 is more than 100 µM and the TGI is more than 100 µM.
Take `CCOC(=O)N1CCC2(CC1)C[C@](C)(C(C)=O)C(C)O2` (stereo partly specified): the TGI is more than 100 µM.
The same measure, in the same setting: as for `COc1cc([C@@H]2OCC3C(c4ccc5c(c4)OCO5)OCC32)cc(OC)c1OC` (stereo partly specified), the figure is more than 100 µM.
Compound `CN(C)C(=N)c1ccccc1` returned a TGI of more than 100 µM.
Turning to `CCOC(=O)C1=C(C)NC(=S)NC1c1ccccc1` (stereo unspecified), the TGI is more than 100 µM.
On the same count and under the same terms, in the case of `CCNC(=S)N/N=C/c1cc([N+](=O)[O-])ccc1O` it was more than 100 µM.
On the same count and under the same terms, as for `O=C1CCC(=O)N1n1c(Cc2ccccc2)n[nH]c1=O`, the figure is more than 100 µM.
Still for that read-out and setting: as for `COc1ccc(C2c3cc4c(cc3OC(NNS(=O)(=O)c3ccc(C)cc3)C2C)OCO4)cc1` (stereo unspecified), the figure is more than 100 µM; as for `CCCCCCCCCCCOc1ccc(C(=O)C(=O)c2ccc(OCCCCCCCCCCC)c(OCCCCCCCCCCC)c2)cc1OCCCCCCCCCCC`, more than 100 µM.
Turning to `COc1cc2c(cc1OC)C(c1ccccc1CCCCl)=NCC2`, the TGI was more than 100 µM.
Compound `COc1ccc2c3c1C(=O)CCCC3CO2` (stereo unspecified) yielded a TGI of more than 100 µM.
The same measure, in the same setting: as for `O=C(Cc1cccs1)N[C@@H]1C(=O)N2C(C(=O)OC(c3ccccc3)c3ccccc3)=C(CO)CS[C@H]12`, the figure is more than 100 µM; as for `c1ccc(N=C2SC3=Nc4cccc5cccc(c45)N3C2=Nc2ccccc2)cc1`, more than 100 µM.
Consider `O=C1C=C(Cl)C(=O)C(c2ccc(Cl)cc2)=C1`, for which the TGI was more than 100 µM.
On the same count and under the same terms, in the case of `CCOC(=O)[C@]1(OC(C)=O)C[C@H](OC(C)=O)[C@@H](C(F)COP(=O)(OCc2ccccc2)OCc2ccccc2)O1` (stereo partly specified) it was more than 100 µM; in that of `N.N.N.N.O=[N+]([O-])[O-].[Co+3].[N-]=[N+]=[N-].[N-]=[N+]=[N-]`, more than 100 µM.
Consider `Cc1nc2ccccc2c(N)c1-c1cc(C)c2c(C)nc3ccccc3c2n1`, for which the GI50 was 1.44 µM and the TGI was 3.13 µM.
For `CC(=O)NC1=C(NCCC(C)C)C(=O)c2ccccc2C1=O`, the TGI was more than 50 µM.
As for `C#Cc1ccc(-n2c(/C=C/c3ccc(C(F)(F)F)cc3)nc3ncccc3c2=O)cc1`, the GI50 is 2.25 µM and the TGI came to 7.01 µM.
Taken in the same sequence, the figures for `COc1cc(-c2nn(-c3ccc(NC(=O)c4ccc(Cl)c(C(F)(F)F)c4)cc3)cc2-c2ccncc2)ccc1Cl` were 5.15 µM and more than 100 µM.
With `O=C(CCC(=O)c1ccc(Cl)cc1)NO`, the TGI is more than 100 µM.
The compound `CC1C=C(CCCCCCCCCCCC[C@@H](O)[C@@H]2CC[C@@H]([C@@H]3CC[C@@H](C(O)CCCCCCCCCCCCC4=C[C@H](C)OC4=O)O3)O2)C(=O)O1` (stereo partly specified) came in with a TGI of more than 100 µM.
Take `Cc1ccc(NC2=C(Cl)C(=O)N(Cc3ccccc3)C2=O)cc1O`: the GI50 is 26.2 µM and the TGI was determined as 82.5 µM.
In the case of `CCCN=C1CCN(Cc2ccccc2)c2ccccc2N1`, the TGI is more than 100 µM.
On to `CCCCC(=O)OCC(=O)[C@]1(O)Cc2c(O)c3c(c(O)c2[C@@H](OC2CC(NC(=O)C(F)(F)F)C(O)C(C)O2)C1)C(=O)c1c(OC)cccc1C3=O` (stereo partly specified), for which the TGI worked out at 29.8 µM.
`COc1nc(N)c(C(=O)CCl)c(=O)n1C`: the TGI was 34.9 µM.
On the same count and under the same terms, as for `FC(F)(F)c1cc(Cl)cnc1N/N=C(/c1ccccc1)c1ccccn1`, the figure is 54 µM.
For `CN/N=C(/Cc1occc(=O)c1O)C(=O)Nc1ccccc1C`, the TGI is more than 100 µM.
Same read-out and setting: in the case of `O=S1(=O)NC(=NCc2c[nH]c3ccccc23)N(c2ccccc2)c2ccncc21` it was more than 100 µM; in that of `COc1c(C)c(C/C=C(\C)CCCCO[Si](c2ccccc2)(c2ccccc2)C(C)(C)C)c(OC)c(OC)c1OC`, more than 100 µM.
With `O=S(=O)(NC1=NCCN1C(=S)SN1CCn2c1nsc2=S)c1ccc(OC(F)(F)F)cc1`, the GI50 is 18.8 µM and the TGI came out at 43.4 µM.
Consider `C[n+]1c2ccccc2c(/C=N\NS(=O)(=O)c2ccc(O)c(C(=O)O)c2)c2ccccc21`, for which the TGI is more than 100 µM.
On the same count and under the same terms, as for `C=C(C1=CC(=O)C(C)(C)O1)[C@@H]1CC=C([C@@H]2CC[C@H]3[C@@]2(C)CC[C@H]2C(C)(C)C(=O)[C@H](O)C[C@]32C)[C@H](O)O1`, the figure is 24.1 µM.
On to `CC1(C)CCc2c(c3c(c4c(=O)c(O)c(-c5ccc(O)cc5)oc24)OC(C)(C)CC3)O1`, for which the GI50 was 92.2 µM and the TGI is more than 100 µM.
Compound `O=C(NNC(=O)c1ccccc1SSc1ccccc1C(=O)NNC(=O)c1ccccc1S)c1ccccc1S` yielded a TGI of more than 100 µM.
Same read-out and setting: as for `O=C1/C(=C/c2ccc(O)cc2)CC/C1=C\c1ccc(O)cc1`, the figure is more than 100 µM; as for `C[C@]12CC[C@H](O)CC1=CC[C@@H]1C2CC[C@]2(C)C(=O)N(N)C(=O)CC12` (stereo partly specified), more than 100 µM.
On the same count and under the same terms, as for `CC[C@@]1(O)C(=O)OCc2c1cc1n(c2=O)Cc2c-1nc1ccccc1c2/C=N\NC(=O)CN`, the figure is more than 78.3 µM; as for `Cc1cccc2c(=O)cc(-c3ccccc3)[nH]c12`, more than 100 µM; as for `COc1ccc(C(=O)C(C(=O)CCC(=O)Nc2ccc(C)c(C)c2)c2ccc(OC)cc2)cc1` (stereo unspecified), more than 100 µM.
The same measure, in the same setting: as for `O=c1[nH][nH]c(=O)n1Cc1ccccc1Cn1c(=O)[nH][nH]c1=O`, the figure is more than 100 µM; as for `CCN(CC)CCC(=O)Nc1ccc2c(c1)C(=O)c1ccc(NC(=O)CCN(CC)CC)cc1C2=O`, 14.8 µM; as for `Cn1cnc([N+](=O)[O-])c1Sc1nnc(-c2cccnc2)n1C`, more than 100 µM.
`CSc1nc2c(c(=O)[nH]1)N=C1c3ccccc3C(=O)C1C(c1ccccc1)N2` (stereo unspecified): the GI50 was 13.5 µM and the TGI is more than 100 µM.
For `c1ccc2cc(-c3cc(-c4cc(-c5ccc6ccccc6c5)on4)no3)ccc2c1`, the TGI is more than 100 µM.
For `O=C(Nc1ccccc1OC(F)(F)F)Nc1n[nH]c2ccccc12`, the GI50 is 81.6 µM and the TGI was more than 100 µM.
For the compound `Cc1ccccc1-n1c(=O)c2ncn(CCCl)c2n(-c2ccccc2C)c1=S`, the TGI was more than 100 µM.
Turning to `O=C1/C(=C/c2cccc([N+](=O)[O-])c2)COc2ccc(O)cc21`, the GI50 was 10.3 µM and the TGI came to 21.9 µM.
As to `CCc1ccc(CCN2CCCCC2)nc1`, the TGI was more than 100 µM.
On to `Cc1ccc(SCC(CSCCO)OCn2cnc3c2NC(N)=NC32OCCO2)cc1` (stereo unspecified), for which the TGI is more than 100 µM.
Regarding `CCOc1cc2c(cc1O)/C(=N\OC)C[C@@H]1[C@@H]2CC[C@]2(C)[C@@H](O)CC[C@@H]12`, the TGI was more than 100 µM.
The same measure, in the same setting: as for `O=C1CCC23CC(C=CC=C12)n1c(=O)n(-c2ccccc2)c(=O)n13` (stereo unspecified), the figure is more than 100 µM.
Same read-out and setting: as for `O=C1c2ccccc2C2C1N2C(=O)C(F)(F)F` (stereo unspecified), the figure is more than 100 µM.
`COc1ccc2c(c1)/C(=C/c1c(C)nc3sc(C)nn13)C(=O)N2`: the GI50 was more than 24.9 µM and the TGI was more than 100 µM.
`O=C1C(=Cc2ccc(O)cc2)N=C(c2ccccc2)N1n1c(-c2ccccc2)nc2ccccc2c1=O` returned a TGI of more than 100 µM.
Still for that read-out and setting: as for `Cc1ccsc1/C=N/Nc1ncccn1`, the figure is more than 100 µM.
The same measure, in the same setting: in the case of `COc1cc2c(cc1OC)-c1c3cc(O)ccc3nn[n+]1CC2` it was more than 100 µM; in that of `C(/c1ccco1)=c1/nc(-c2ccccc2)n2c1nc1ccccc12`, more than 100 µM; in that of `CCOC(=O)CN1C(=O)c2cccc3cc([N+](=O)[O-])cc(c23)C1=O`, 25.1 µM.
Compound `O=C(CC1(O)C(=O)Nc2c(Cl)cc(Cl)cc21)c1ccc(Br)cc1Br` (stereo unspecified) came in with a TGI of more than 55.6 µM.
The compound `O=C(O)CN(CC(=O)O)C1CCCCC1N(CC(=O)O)CC(=O)NCCN=C=S` (stereo unspecified) registered a TGI of more than 100 µM.
Same read-out and setting: as for `Cc1ccc2c(=O)cc(-c3ccc(F)cc3)[nH]c2n1`, the figure is more than 100 µM; as for `CC(=O)NNc1nc(C)c(C(=O)NNC(=O)C(=O)Nc2c(Cl)cc([N+](=O)[O-])cc2Cl)s1`, more than 100 µM.
Same read-out and setting: as for `O=C1/C(=C/c2ccccc2)CN(C(=O)C(Cl)(Cl)Cl)C/C1=C\c1ccccc1`, the figure is 18.5 µM; as for `Oc1ccc(-c2nc(-c3cccnc3)c(-c3ccc(F)cc3)[nH]2)cc1`, 58.4 µM.
In the case of `COC(=O)[C@@H]1[C@H](O)[C@H](C)[C@H](O)[C@@](C)(O)/C=C\C=C(C)C(=O)Nc2c(C)c(OC(C)=O)c3c(c2O)C(=O)C(C)=C2OCOC(=C23)C(C)=C[C@@](C)(O)[C@H](O)[C@@H](C)[C@H]1OC(C)=O`, the TGI was more than 100 µM.
Same read-out and setting: in the case of `CC(C)c1ccc(/C=C2/C=C(c3ccc4ccccc4c3)OC2=O)cc1` it was more than 100 µM; in that of `C=C1c2nc3ccccc3n2C=C(c2ccccc2)N1c1ccc([N+](=O)[O-])cc1`, more than 86.9 µM; in that of `Cc1cccc(/C=N/NC(=S)Nc2ccccc2)n1`, more than 91.8 µM.
